Experimental data as given in PubChem BioAssay AID1508624 (National Center for Advancing Translational Sciences (NCATS), 2021).
Among all 48,000 compounds or so, about 120 (0.25%) were called active. Another 4% or so got no clear call; they are omitted. Calls come from the whole dose curve; as a rule, active = well fitted activation curve with a large enough effect; inconclusive = small, poorly fitted or top-dose-only effect, or another doubt; inactive = no such curve, though single readings can be large or run the other way. This is one part of the list.

assay: Primary qHTS for Identification of Small Molecule Activators of Huntingtin-Antisense Promoter Activity; conditions: HEK293 HTT-AS promoter firefly luciferase reporter (activity 0% = vehicle and -100% = no light), 24 h; series mostly up to 57.5 µM; activity change, positive = activation: at the top concentration; note: nearly all actives have a fitted effect of over 55% in size
In short: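 HEK293 luciferase promoter-reporter cells (2,500/well) plated 24 h, then compounds added at up to 57.5 uM final for 24 h at 37 °C. Firefly luminescence by Dual-Glo, normalized to vehicle (0%) and zero RLU (-100%).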

Compound | activity change, positive = activation
COc1cc(Cl)c(C)cc1NC(=O)CSc1cc(=O)n(C)c2cc(Cl)ccc12 | inactive: 11.5%
Cn1ncc2c(NCc3cccc(Cl)c3)ncnc21 | inactive: -21.7%
CCOc1ccc(NC(=O)Nc2c(C)n(C)n(-c3ccccc3)c2=O)cc1 | inactive: -6.78%
Cc1cc(C)n2nc(CNC(=O)c3cccc(Cl)c3)nc2n1 | inactive: -11.4%
CSc1ccc(CCNC(=O)C(C)n2nc(C)c3c(C)n(-c4ccccc4)nc3c2=O)cc1 (configuration not stated) | inactive: -8.04%
Cc1cccc(CNC(=O)c2ccc(-c3nc(CS(=O)(=O)c4ccccc4)c(C)o3)cc2)c1 | inactive: -18.4%
Cc1ccc(CCNC(=O)Cn2nc(C)c3c(C)n(-c4ccc(C)cc4)nc3c2=O)cc1 | inactive: -44.6%
Cc1ccc(NC(=O)COc2ccc3oc4c(c3c2)CCCC4)c(C)c1 | inactive: -11.6%
CN(C)c1ccc(-c2nc(-c3ccccn3)no2)cc1[N+](=O)[O-] | inactive: -54%
Cc1cccc(NC(=O)C(c2ccccc2)N2Cc3ccccc3C2=O)c1C (configuration not stated) | inactive: 0.296%
Cc1noc2ncnc(Nc3ccc(F)cc3)c12 | inactive: -0.991%
COC(=O)c1sccc1S(=O)(=O)N(CC(=O)Nc1ccc(C)cc1)c1ccccc1 | inactive: 6.87%
COc1ccccc1N1CCN(C(=O)CCn2cnc3onc(-c4ccc(F)cc4)c3c2=O)CC1 | inactive: -9.59%
Cc1cc(F)ccc1NC(=O)C1CCCN(c2nnc(-n3c(C)ccc3C)s2)C1 (configuration not stated) | inactive: -13.3%
Cc1cc(C)cc(N2C(=O)CS(=O)(=O)C23C(=O)N(Cc2ccc(F)cc2)c2ccc(C)cc23)c1 (configuration not stated) | inactive: -10.3%
COc1ccc(NC(=O)Cn2c(=O)nc(-c3ccccc3)c3ccccc32)cc1OC | inactive: -4.76%
O=C(O)CCCc1ccccc1 | inactive: 0.775%
Cn1ncc(C(=O)N2CCN(c3ccccc3)CC2)c1C1CCN(C(=O)OC(C)(C)C)CC1 | inactive: -9.75%
Cc1ccc(CCNC(=O)NCc2noc3ccc(C)cc23)cc1 | inactive: -11.6%
CCOc1ccc(-c2cc3nc(C4CCN(C(=O)OC(C)(C)C)CC4)c(C(=O)Nc4ccc(C(=O)OC)cc4)cn3n2)cc1 | inactive: 23.4%
COc1ccc2oc(=O)c(C(=O)NCCc3c(C)[nH]c4c(C)cccc34)cc2c1 | inactive: -19.1%
COC(=O)c1cc(NC(=O)CCS(=O)(=O)c2cc(Br)cc3c2N(C(=O)C2CC2)CC3)cc(C(=O)OC)c1 | inactive: -9.29%
CCOc1cc2[nH]c(=O)n(CCC(=O)N3CCN(c4cccc(Cl)c4)CC3)c(=O)c2cc1OCC | inactive: -3.89%
CCOC(=O)Cn1nc(C)c(NC(=O)COc2ccc(OC)cc2)c1C | inactive: -0.183%
CCn1c2ccccc2c2cc(NC(=O)COc3cc(C)c(Cl)c(C)c3)ccc21 | inactive: 10.1%
Cc1ccccc1C(=O)Nc1ccc(NC(=O)c2cccs2)cc1 | inactive: -9.29%
CCOc1ccc(-c2csc3ncnc(Nc4cccc(O)c4)c23)cc1 | inactive: -29.4%
